# Source: the supplement of paper PMC8728848
# This is one part of the list.
# B1: FGFR2-Fc (protein)
# chain: MVNVTDAISSGDDEDDTDGAEDFVSENSNNKRAPYWTNTEKMEKRLHAVPAANTVKFRCPAGGNPMPTMRWLKNGKEFKQEHRIGGYKVRNQHWSLIMESVVPSDKGNYTCVVENEYGSINHTYHLDVVERSPHRPILQAGLPANASTVVGGDVEFVCKVYSDAQPHIQWIKHVEKNGSKYGPDGLPYLKVLKHSGINSSNAEVLALFNVTEADAGEYICKVSNYIGQANQSAWLTVLPKQQAPGREKEITASPDYLETRPLEQKLISEEDLAANDILDYKDDDDKV
# What was measured:
# Assay in all cases: glycan array binding signal (z-score within array); higher = stronger binding
# Conditions in all cases: glycan notation: IUPAC condensed, linker removed
# [1] = molecular target: Gal(b1-3)[Fuc(a1-4)]GlcNAc(b1-6)GalNAc
# Outline: (§1)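 From the Consortium for Functional Glycomics database, 3228 arrays were curated, keeping only those whose protein sequence was available. Binding is given as a within-array Z-score averaged across arrays sharing a protein sequence and across linkers. Negative Z-scores can be read as non-binding.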
# [2] = molecular target: Gal(b1-3)[GlcNAc(b1-6)]GalNAc
# Outline: as §1
# [3] = molecular target: Gal(b1-3)[Neu5Ac(a2-6)]GalNAc
# Outline: as §1
# [4] = molecular target: Gal(b1-3)[Neu5Ac(a2-6)]GlcNAc(b1-4)Gal(b1-4)Glc
# Outline: as §1
# [5] = molecular target: Gal(b1-3)[Neu5Ac(b2-6)]GalNAc
# Outline: as §1
# Gal(b1-4)Gal = molecular target: Gal(b1-4)Gal
# Outline: as §1
# [6] = molecular target: Gal(b1-4)GalNAc(a1-3)[Fuc(a1-2)]Gal(b1-4)GlcNAc
# Outline: as §1
# [7] = molecular target: Gal(b1-4)GalNAc(b1-3)[Fuc(a1-2)]Gal(b1-4)GlcNAc
# Outline: as §1
# Gal(b1-4)Glc = molecular target: Gal(b1-4)Glc
# Outline: as §1
# Gal(b1-4)Glc6S = molecular target: Gal(b1-4)Glc6S
# Outline: as §1
# Gal(b1-4)GlcNAc = molecular target: Gal(b1-4)GlcNAc
# Outline: as §1
# [8] = molecular target: Gal(b1-4)GlcNAc(a1-6)Gal(b1-4)GlcNAc
# Outline: as §1
# Gal(b1-4)GlcNAc(b1-2)Man = molecular target: Gal(b1-4)GlcNAc(b1-2)Man
# Outline: as §1
# [9] = molecular target: Gal(b1-4)GlcNAc(b1-2)Man(a1-3)Man(b1-4)GlcNAc(b1-4)GlcNAc
# Outline: as §1
# [10] = molecular target: Gal(b1-4)GlcNAc(b1-2)Man(a1-3)[Gal(b1-4)GlcNAc(b1-2)Man(a1-6)]Man(b1-4)GlcNAc(b1-4)GlcNAc
# Outline: as §1
# [11] = molecular target: Gal(b1-4)GlcNAc(b1-2)Man(a1-3)[Gal(b1-4)GlcNAc(b1-2)Man(a1-6)]Man(b1-4)GlcNAc(b1-4)[Fuc(a1-6)]GlcNAc
# Outline: as §1
# [12] = molecular target: Gal(b1-4)GlcNAc(b1-2)Man(a1-3)[Gal(b1-4)GlcNAc(b1-2)Man(a1-6)][Gal(b1-4)GlcNAc(b1-4)]Man(b1-4)GlcNAc(b1-4)[Fuc(a1-6)]GlcNAc
# Outline: as §1
# [13] = molecular target: Gal(b1-4)GlcNAc(b1-2)Man(a1-3)[Gal(b1-4)GlcNAc(b1-2)Man(a1-6)][GlcNAc(b1-4)]Man(b1-4)GlcNAc(b1-4)[Fuc(a1-6)]GlcNAc
# Outline: as §1
# [14] = molecular target: Gal(b1-4)GlcNAc(b1-2)Man(a1-3)[GlcNAc(b1-2)Man(a1-6)]Man(b1-4)GlcNAc(b1-4)GlcNAc
# Outline: as §1
# [15] = molecular target: Gal(b1-4)GlcNAc(b1-2)Man(a1-3)[GlcNAc(b1-4)][Gal(b1-4)GlcNAc(b1-2)Man(a1-6)]Man(b1-4)GlcNAc(b1-4)GlcNAc
# Outline: as §1
# [16] = molecular target: Gal(b1-4)GlcNAc(b1-2)Man(a1-3)[Man(a1-6)]Man(b1-4)GlcNAc(b1-4)GlcNAc
# Outline: as §1
# [17] = molecular target: Gal(b1-4)GlcNAc(b1-2)Man(a1-6)Man(b1-4)GlcNAc(b1-4)GlcNAc
# Outline: as §1
# [18] = molecular target: Gal(b1-4)GlcNAc(b1-2)Man(a1-6)[GlcNAc(b1-2)Man(a1-3)]Man(b1-4)GlcNAc(b1-4)GlcNAc
# Outline: as §1
# [19] = molecular target: Gal(b1-4)GlcNAc(b1-2)Man(a1-6)[Man(a1-3)]Man(b1-4)GlcNAc(b1-4)GlcNAc
# Outline: as §1
# [20] = molecular target: Gal(b1-4)GlcNAc(b1-2)[Gal(b1-4)GlcNAc(b1-4)]Man(a1-3)[Gal(b1-4)GlcNAc(b1-2)Man(a1-6)]Man(b1-4)GlcNAc(b1-4)GlcNAc
# Outline: as §1
# [21] = molecular target: Gal(b1-4)GlcNAc(b1-2)[Gal(b1-4)GlcNAc(b1-4)]Man(a1-3)[Gal(b1-4)GlcNAc(b1-2)[Gal(b1-4)GlcNAc(b1-6)]Man(a1-6)]Man(b1-4)GlcNAc(b1-4)GlcNAc
# Outline: as §1
# [22] = molecular target: Gal(b1-4)GlcNAc(b1-2)[Gal(b1-4)GlcNAc(b1-4)]Man(a1-3)[GlcNAc(b1-4)][Gal(b1-4)GlcNAc(b1-2)Man(a1-6)]Man(b1-4)GlcNAc(b1-4)GlcNAc
# Outline: as §1
# [23] = molecular target: Gal(b1-4)GlcNAc(b1-2)[Gal(b1-4)GlcNAc(b1-4)]Man(a1-3)[GlcNAc(b1-4)][Gal(b1-4)GlcNAc(b1-2)[Gal(b1-4)GlcNAc(b1-6)]Man(a1-6)]Man(b1-4)GlcNAc(b1-4)GlcNAc
# Outline: as §1
# [24] = molecular target: Gal(b1-4)GlcNAc(b1-2)[Gal(b1-4)GlcNAc(b1-6)]Man(a1-6)[Gal(b1-4)GlcNAc(b1-2)Man(a1-3)]Man(b1-4)GlcNAc(b1-4)GlcNAc
# Outline: as §1
# [25] = molecular target: Gal(b1-4)GlcNAc(b1-2)[Gal(b1-4)GlcNAc(b1-6)]Man(a1-6)[Gal(b1-4)GlcNAc(b1-2)Man(a1-3)]Man(b1-4)GlcNAc(b1-4)[Fuc(a1-6)]GlcNAc
# Outline: as §1
# [26] = molecular target: Gal(b1-4)GlcNAc(b1-2)[Gal(b1-4)GlcNAc(b1-6)]Man(a1-6)[GlcNAc(b1-4)][Gal(b1-4)GlcNAc(b1-2)Man(a1-3)]Man(b1-4)GlcNAc(b1-4)GlcNAc
# Outline: as §1
# [27] = molecular target: Gal(b1-4)GlcNAc(b1-2)[Gal(b1-4)GlcNAc(b1-6)]Man(a1-6)[GlcNAc(b1-4)][Gal(b1-4)GlcNAc(b1-2)[Gal(b1-4)GlcNAc(b1-4)]Man(a1-3)]Man(b1-4)GlcNAc(b1-4)[Fuc(a1-6)]GlcNAc
# Outline: as §1
# [28] = molecular target: Gal(b1-4)GlcNAc(b1-3)Gal(b1-3)GalNAc
# Outline: as §1
# [29] = molecular target: Gal(b1-4)GlcNAc(b1-3)Gal(b1-3)GlcNAc
# Outline: as §1
# [30] = molecular target: Gal(b1-4)GlcNAc(b1-3)Gal(b1-4)Glc
# Outline: as §1
# [31] = molecular target: Gal(b1-4)GlcNAc(b1-3)Gal(b1-4)GlcNAc
# Outline: as §1
# [32] = molecular target: Gal(b1-4)GlcNAc(b1-3)Gal(b1-4)GlcNAc(b1-2)Man(a1-3)[Gal(b1-4)GlcNAc(b1-3)Gal(b1-4)GlcNAc(b1-2)Man(a1-6)]Man(b1-4)GlcNAc(b1-4)GlcNAc
# Outline: as §1
# [33] = molecular target: Gal(b1-4)GlcNAc(b1-3)Gal(b1-4)GlcNAc(b1-2)Man(a1-3)[Gal(b1-4)GlcNAc(b1-3)Gal(b1-4)GlcNAc(b1-2)Man(a1-6)]Man(b1-4)GlcNAc(b1-4)[Fuc(a1-6)]GlcNAc
# Outline: as §1
binder,measurement,setting,value
B1,glycan array binding signal (z-score),[1],0.423
same,glycan array binding signal (z-score),[2],-0.352
same,glycan array binding signal (z-score),[3],-0.312
same,glycan array binding signal (z-score),[4],0.048
same,glycan array binding signal (z-score),[5],0.257
same,glycan array binding signal (z-score),Gal(b1-4)Gal,-0.141
same,glycan array binding signal (z-score),[6],-0.197
same,glycan array binding signal (z-score),[7],-0.319
same,glycan array binding signal (z-score),Gal(b1-4)Glc,-0.565
same,glycan array binding signal (z-score),Gal(b1-4)Glc6S,0.569
same,glycan array binding signal (z-score),Gal(b1-4)GlcNAc,-0.342
same,glycan array binding signal (z-score),[8],-0.372
same,glycan array binding signal (z-score),Gal(b1-4)GlcNAc(b1-2)Man,-0.101
same,glycan array binding signal (z-score),[9],-0.054
same,glycan array binding signal (z-score),[10],-0.121
same,glycan array binding signal (z-score),[11],0.084
same,glycan array binding signal (z-score),[12],-0.801
same,glycan array binding signal (z-score),[13],-0.418
same,glycan array binding signal (z-score),[14],-0.265
same,glycan array binding signal (z-score),[15],-0.552
same,glycan array binding signal (z-score),[16],-0.414
same,glycan array binding signal (z-score),[17],-0.148
same,glycan array binding signal (z-score),[18],-0.06
same,glycan array binding signal (z-score),[19],0.515
same,glycan array binding signal (z-score),[20],-0.037
same,glycan array binding signal (z-score),[21],-0.23
same,glycan array binding signal (z-score),[22],-0.176
same,glycan array binding signal (z-score),[23],0.046
same,glycan array binding signal (z-score),[24],-0.1
same,glycan array binding signal (z-score),[25],-0.336
same,glycan array binding signal (z-score),[26],-0.241
same,glycan array binding signal (z-score),[27],-0.188
same,glycan array binding signal (z-score),[28],-0.42
same,glycan array binding signal (z-score),[29],0.404
same,glycan array binding signal (z-score),[30],0.154
same,glycan array binding signal (z-score),[31],-0.474
same,glycan array binding signal (z-score),[32],0.351
same,glycan array binding signal (z-score),[33],0.691
